The supplement of paper PMC7335073
In all, about 4,100 sequences were measured (“relative CpG methylation activity (normalised to average over all NNNCGNNN flanks)”: median about 0.87, highest 2% from about 2.4 on). The list shows a part of the results.

Target: DNMT3A catalytic domain (mouse) (UniProt O88508)
Assay: relative CpG methylation activity (normalised to average over all NNNCGNNN flanks) (relative (1 = mean)); higher = more methylation of the central CpG
Conditions: system: in vitro, murine catalytic domain; CpG state: hemimethylated substrate pool; residues: 608-908
Procedure, shortened: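 Each experiment was done in two independent repeats, using pooled dsDNA substrates with a central CpG flanked by 10 random nucleotides, methylated for 60 min at 37 °C by the murine DNMT3A or DNMT3B catalytic domain with 0.8 mM S-adenosyl-L-methionine in HEPES pH 7.5 buffer. After bisulfite conversion and PCR, the DNA was read by Illumina sequencing. Methylation was averaged per context, defined by three bases on each side of the CpG. Relative methylation activity is each context's average methylation over the mean of all contexts.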

Sequence	relative CpG methylation activity
TAACGCTC	1.57
CGTCGCTA	0.737
TGCCGTAA	0.797
ATTCGGCT	0.663
TAACGGTC	1.06
TCTCGGTT	0.988
TCACGGCG	0.789
GGCCGTTC	0.777
TAACGCCC	1.61
GCTCGCGG	0.549
GGTCGTCT	0.726
CAGCGACC	0.599
CTGCGATC	1.42
TATCGGAG	0.197
CGTCGCCC	1.9
AAGCGATG	0.369
AGCCGACA	1.02
GACCGGTT	1.08
TTTCGACT	0.743
TCACGTGG	0.364
CCGCGCCT	2.07
CAGCGGTT	0.25
GGACGAAA	0.717
AAGCGCCG	1.19
GCCCGATT	1.01

Sequence	relative CpG methylation activity
GACCGTTT	0.619
CTTCGGAA	1.15
AGTCGGTT	0.368
TAACGCTT	1.53
TAGCGAGC	0.625
CTTCGCCT	2.27
GGACGCAT	0.571
AGACGAAC	1.11
ATCCGGGA	0.766
CGGCGCTA	0.829
GGTCGGAA	0.575
ATACGGCG	1.65
TCTCGACT	0.991
GATCGTTA	0.186
GTCCGTCG	2.53
CGCCGCTT	1.55
GAGCGTGT	0.238
ATGCGGCC	1.64
ACACGGCT	1.69
TCCCGGCA	1.1
GGGCGAGG	0.806
TATCGGGT	0.5
TCCCGACT	1.14
CCGCGCTG	1.07
GACCGGAA	0.936

Sequence	relative CpG methylation activity
TGTCGGAA	0.614
GATCGCCA	0.923
ACCCGTCT	1.74
ATGCGCAC	1.77
CTTCGACA	1.22
GCCCGGGC	1.04
TATCGCGT	0.597
TAACGTCG	1.31
TCTCGCCA	1.59
TTTCGTAT	1.15
GAACGCTG	0.497
TACCGGCT	0.827
TTACGCGG	0.654
CAACGGTC	1.03
ACACGTAC	1.71
GGGCGTCC	1.45
CTACGTCC	2.8
GGCCGAGA	0.644
GTTCGTTA	1.37
AATCGTAT	0.211
GACCGGCA	0.909
ACACGGGT	1.06
GATCGCAG	0.248
ACACGCCC	2.4
AATCGGCC	0.419

Sequence	relative CpG methylation activity
AGGCGTAA	0.665
ACTCGGCT	1.23
AGACGTCA	1.03
AATCGTGT	0.201
ATGCGACA	1.23
GGCCGGCC	0.968
CCACGGCA	1.62
TGACGTAT	0.326
GGGCGGGG	0.227
AGCCGTTG	0.402
CACCGAAA	1.16
ACCCGACG	1.17
GCTCGTGA	0.694
CCTCGGTC	1.02
CTTCGTCG	1.71
GCTCGGCG	0.833
ACTCGTAG	0.496
AGCCGATC	1.11
TGCCGAGA	0.951
GACCGACG	0.672
GGCCGGGC	0.75
TTACGCTA	1.94
CTCCGTGA	0.887
CATCGTGC	0.26
AACCGTCG	1.34

Sequence	relative CpG methylation activity
GAGCGGGA	0.397
TGTCGCTA	1.02
TGCCGTAG	0.376
GCACGCGA	1.28
AGTCGGGT	0.417
GCGCGAGC	1.43
GTGCGGGG	0.161
CCGCGGAT	0.894
GCCCGGAG	0.506
GCCCGGCT	1.16
CGACGATA	0.488
AGACGAAG	0.459
ATTCGTAT	0.724
TTCCGGCC	1.99
CGCCGCTG	0.894
TGTCGCTC	1.44
CACCGCGG	0.261
TTCCGTGG	0.603
CCGCGTGC	0.476
AGTCGTCT	0.604
AGTCGCGA	0.305
TTACGCTG	1.74
TGCCGGGA	0.714
CAGCGCCG	0.976
TTGCGATC	2.29

Sequence	relative CpG methylation activity
GGGCGATC	1.48
ATCCGGTG	0.96
TGTCGCGG	0.189
AAGCGCTT	1.28
CGACGTTA	0.702
ACTCGAAA	1.12
CCACGTCT	1.61
GAGCGGAT	0.465
TCCCGAAA	1.21
AATCGCCA	0.81
GTACGCCA	2.14
TTCCGGTG	1.5
TAGCGGCA	0.714
TATCGGGA	0.248
GCGCGAAG	0.42
TTGCGGAA	1.22
ACCCGCTT	1.82
CCTCGTTG	0.606
GCCCGAGA	1.08
TGCCGTCA	1.1
GGACGAAC	1.36
CGGCGGGG	0.263
GATCGGTC	0.604
CTGCGCAC	1.56
CAACGGTT	0.815

Sequence	relative CpG methylation activity
TGGCGGCG	0.784
AATCGATT	0.376
CTGCGTAC	1.64
ACACGTGC	0.945
CAACGGTA	0.845
TATCGTAA	1.11
CACCGCAC	1.11
CGCCGAGT	0.664
ACGCGGTA	0.802
GAACGCTA	0.855
CTACGGTC	1.92
TTGCGCAG	0.966
GTACGGAA	1.75
GTACGGTT	1.45
CTTCGCGA	1.31
CAGCGCTC	1.08
AGCCGGCC	0.556
GGTCGAGA	0.379
TCCCGTTG	0.752
AATCGTCC	0.837
GCCCGGAA	0.896
CCTCGGGT	0.941
